# Experimental data reported in PubChem BioAssay AID1259400 (National Center for Advancing Translational Sciences (NCATS), 2018).
# The campaign covered roughly 350,000 compounds. About 2,100 (0.6%) were called active. This list was built around the results that the source calls inconclusive (neither active nor inactive); the mix of calls is not that of the screen.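 Rule for the calls: active = activity change of -60% or lower, but not beyond a set lower limit; inconclusive = change between -60% and -40%, or beyond the set limit; inactive = change above -40%.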
# Target: Relaxin receptor 1 (Homo sapiens) (UniProt Q9HBX9)
# Sequence of UniProt Q9HBX9 (Q9HBX9 whole entry, looked up): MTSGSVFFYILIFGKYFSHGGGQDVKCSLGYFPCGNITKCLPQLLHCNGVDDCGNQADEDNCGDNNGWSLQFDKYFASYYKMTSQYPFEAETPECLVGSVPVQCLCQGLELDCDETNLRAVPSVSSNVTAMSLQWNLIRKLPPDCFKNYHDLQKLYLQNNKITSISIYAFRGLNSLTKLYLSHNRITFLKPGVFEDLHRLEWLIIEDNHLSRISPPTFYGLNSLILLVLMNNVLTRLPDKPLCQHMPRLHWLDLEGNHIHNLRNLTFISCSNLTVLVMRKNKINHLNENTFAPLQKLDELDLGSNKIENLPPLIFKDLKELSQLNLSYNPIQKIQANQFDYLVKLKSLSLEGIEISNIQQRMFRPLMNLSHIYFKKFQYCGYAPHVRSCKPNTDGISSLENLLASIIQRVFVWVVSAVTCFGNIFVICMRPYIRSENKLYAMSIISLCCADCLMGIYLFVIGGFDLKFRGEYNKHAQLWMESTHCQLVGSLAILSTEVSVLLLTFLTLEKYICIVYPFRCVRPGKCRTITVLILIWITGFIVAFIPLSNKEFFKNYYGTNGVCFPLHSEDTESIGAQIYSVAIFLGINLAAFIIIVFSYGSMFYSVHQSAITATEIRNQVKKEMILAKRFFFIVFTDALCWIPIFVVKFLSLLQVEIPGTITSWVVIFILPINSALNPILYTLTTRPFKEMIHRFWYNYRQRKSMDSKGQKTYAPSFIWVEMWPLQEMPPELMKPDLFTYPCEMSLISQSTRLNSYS
# Assay: qHTS Assay for Antagonists of the Relaxin Receptor RXFP1
# Settings: HEK293-RXFP1, relaxin-stimulated cAMP HTRF, 30 min; at 57.5 µM; active compounds read low
# % is set by controls: 0 for no effect and ±100 for the full control effect.
row,Structure (SMILES),"activity change, negative = inhibition"
1,O=[N+]([O-])c1cc(/C=N/O)ccc1Sc1ccccc1,active: -60.1%
2,COc1cccc(C(=O)NN/C(C)=C/C(=O)C(F)(F)C(F)(F)C(F)(F)F)c1,inconclusive: -55.9%
3,CC(Nc1ncnc2c1cnn2-c1cccc(Cl)c1)c1ccccc1 (centres undefined),inconclusive: -51.9%
4,COc1ccc(C(=O)Cn2c(NCCO)nc3ccccc32)cc1,inconclusive: -49.4%
5,COc1ccccc1NC(=O)Nc1nc(CC(=O)NCc2ccc(F)cc2)cs1,active: -76.2%
6,N#CC(=C(O)COC(=O)c1ccc2c(c1)OCCO2)c1nc2ccccc2[nH]1,inconclusive: -55.9%
7,CCCCNC(=O)c1ccc(-n2c(=S)[nH]c3ccccc3c2=O)cc1,active: -80.7%
8,CC(C)(C)C(=O)NCCc1nc2ccccc2n1CCCCOc1ccc(Cl)cc1,active: -84.9%
9,CCOc1cccc(CNc2ccc(O)cc2)c1OCc1ccc(Cl)cc1Cl,inconclusive: -57%
10,COC(=O)CS(=O)(=O)c1nnc([C@H](Cc2ccccc2)NC(=O)OC(C)(C)C)o1,inconclusive: -48.3%
11,CCN(c1ccccc1)c1ncnc2c1cnn2-c1ccc(C)cc1C,inconclusive: -52.8%
12,COC(=O)c1c(Oc2ccc(C(C)=O)cc2)nnc(-c2ccccc2)c1-c1ccccc1,inconclusive: -41.5%
13,O=C(COc1ccc(Cl)cc1Br)NC(=O)NC1CCCC1,inconclusive: -41.5%
14,Cc1cc(C)c(S(=O)(=O)c2ccc(C(C)(C)C)cc2)c(Cl)n1,inconclusive: -42.3%
15,CCOc1ccc(S(=O)(=O)Nc2ccc3c(c2)N(C(C)=O)CCC3)cc1,inconclusive: -43.3%
16,Cc1cc(NC(=O)c2coc(=O)c(Br)c2)ccc1C(C)C,inconclusive: -46.5%
17,Cc1ccc(OCC(=O)NC2CC(C)(C)NC(C)(C)C2)cc1C,active: -82%
18,CC(C)c1ccc(OCc2ccc(C(=O)N3CCCC3)o2)cc1,inconclusive: -54%
19,Cn1nccc1C(=O)Nc1ccc2c(c1)OCO2,inactive: 5.87%
20,CCOC(=O)c1c(NC(=O)CSc2nc3ccc(OC)cc3[nH]2)sc2c1CC(C)(C)NC2(C)C,active: -62.2%
21,COc1ccc(CC(=O)NCc2nc3cccnc3n2Cc2ccc(C)cc2)cc1OC,inactive: 7.04%
22,Oc1ccc(Br)cc1/C=N/NC(=S)NCCc1ccccc1,inconclusive: -47.9%
23,CCOc1ccc2nc(N3C(=O)CNC3=S)sc2c1,inconclusive: -44.7%

row,Structure (SMILES),"activity change, negative = inhibition"
1,O=C1N=c2ccccc2=C1c1[nH]c(=S)[nH]c1O,inactive: -12.6%
2,CCN(CCN1CCCC1)C(=O)c1cc(COc2ccccc2SC)on1,inactive: -6.39%
3,CCOc1ccc(-c2nonc2NC(=O)c2oc3ccc(Br)cc3c2C)cc1,inconclusive: -52%
4,NC(=O)c1nsc(C(=O)N(CC(=O)NC2CCCCC2)c2cccc(F)c2)c1N,inactive: -5.56%
5,CN1CCN(NC(=O)c2cn(-c3ccccc3)nc2-c2cccc(Br)c2)CC1,inconclusive: -40.4%
6,Cc1ccc(OCC(=O)N/N=C/C=C/c2ccco2)c(Br)c1,active: -76%
7,COc1ccc(Cl)cc1NC(=O)CCS(=O)(=O)c1nc(-c2cccs2)cc(C(F)(F)F)n1,inconclusive: -42%
8,CN(C(=O)CSc1nc2scc(-c3ccccc3)c2c(=O)[nH]1)c1ccccc1,active: -64.3%
9,NC(=O)c1ccc(N2CCN(c3ccc(O)cc3)CC2)c([N+](=O)[O-])c1,inconclusive: -56.5%
10,Cc1ccc(CC(C)(O)CC(C)(O)Cc2ccc(C)cc2)cc1 (centres undefined),inconclusive: -57.8%
11,CCC(Cc1ccccc1)NC(=O)Cn1cccc1C(=O)c1ccccc1 (centres undefined),active: -114%
12,Cc1cccc(/C=C(\c2nc3ccccc3[nH]2)S(=O)(=O)c2ccccc2)c1,inconclusive: -42.7%
13,Clc1cccc(CN2CCc3c([nH]c4ccccc34)C2)c1Cl,inconclusive: -44.8%
14,CCOC(=O)c1cnc2ccc(OC)cc2c1NCCc1ccccc1,inconclusive: -56.9%
15,CC1(c2cccc(Br)c2)NC(=O)N(CC(=O)N2CCc3ccccc32)C1=O (centres undefined),inconclusive: -42.7%
16,Cc1cc2c(cc1CC(=O)c1sccc1S(=O)(=O)Nc1onc(C)c1Cl)OCO2,inconclusive: -47%
17,Cc1ccc(-c2csc3ncnc(Cl)c23)cc1,inconclusive: -50.3%
18,Cc1ccc(/C=C2\CC(C)CC3=C2NC(=S)NC3c2ccc(C)cc2)cc1 (centres undefined),inconclusive: -47.4%
19,Cc1cccc(NC(=O)c2c(NC(=O)C(F)(F)F)sc3c2CCCCC3)c1,inconclusive: -55.2%
20,CC(C)NCC(O)Cn1c2c(c3ccccc31)CCc1c-2cnn1-c1ccccc1 (centres undefined),inconclusive: -55.4%
21,Cc1nnc(C(=O)NC(C)(C)c2nc(C(=O)NCc3ccc(F)cc3)c(O)c(=O)n2C)o1,inactive: -18.2%
22,COc1ccc2c(-c3ccccc3)cc(SCC(=O)N(C)C)nc2c1,inconclusive: -45.8%
23,CCOc1ccc2nc(NC(=O)c3ccc(OCC4CCCO4)cc3)sc2c1 (centres undefined),inconclusive: -47.4%

row,Structure (SMILES),"activity change, negative = inhibition"
1,Cc1cccc(CN2CCC(C(=O)Nc3cccc(-c4cccc(F)c4)c3)CC2)n1,inconclusive: -54.2%
2,CC(=O)Oc1ccccc1C(=O)C=Cc1cccc([N+](=O)[O-])c1,active: -83.8%
3,Cc1ccc(NC(=O)CSc2nc3ncccc3[nH]2)cc1F,inactive: 3.56%
4,CCOC(=O)c1c(C)n(-c2ccc(C)cc2)c2ccc(OCC(O)CN3CCN(C)CC3)cc12 (centres undefined),active: -86.1%
5,Cc1ccc2[nH]c(=O)c(CN(CCCN(C)C)C(=S)NCCc3ccccc3)cc2c1,inconclusive: -43.1%
6,COCCN1CCn2c(nc3cc(NC(=O)NC4CCCCC4)ccc32)C1,inactive: 12.8%
7,N#CC1=C(N)OC2=C(CC/C2=C\c2ccccc2Cl)C1c1ccccc1Cl (centres undefined),inactive: -25%
8,COc1ccc(CCNC(=O)c2ccc(CSCc3ccc(C)cc3)o2)cc1OC,inconclusive: -56.8%
9,CCOc1ccc(S(=O)(=O)NCCc2csc3nc(-c4cccc(C)c4)nn23)cc1,inconclusive: -46.2%
10,O=c1[nH]c2ccc(Cl)cc2c(-c2ccccc2)c1SC(=S)N1CCCCC1,inconclusive: -52.2%
11,O=C(Nc1ccc(OC(F)(F)F)cc1)C(NS(=O)(=O)c1cccc2nsnc12)c1ccccc1 (centres undefined),inconclusive: -44.7%
12,CCOc1ccc(/C=C2\SC(N3CCc4ccccc4C3)=NC2=O)cc1,inconclusive: -48%
13,COc1cc(CN2CCc3c([nH]c4ccccc34)C2)cc(OC)c1,inconclusive: -57%
14,Cc1cc(/C=C2\SC(=S)NC2=O)c(C)n1-c1ccccc1,inconclusive: -44.5%
15,CC(C)c1ccc2c(c1)C(N1CCN(C)CC1)Cc1cccnc1S2 (centres undefined),inconclusive: -42.1%
16,COc1ccc([N+](=O)[O-])cc1NC(=O)c1ccccc1SC,inactive: -17.4%
17,C#Cc1cccc(NC(=O)c2ccc3c(c2)C(=O)N(Cc2cccnc2)C3=O)c1,active: -88.2%
18,CCOc1cc(-c2ccc(OC(=O)c3ccc(Cl)cc3)c(OC)c2)cc(=O)c2c(C)oc(C)c12,active: -62.7%
19,O=C(N/N=C/c1cc(Br)ccc1O)c1cccc(N2CCCC2=O)c1,inconclusive: -45.4%
20,Cc1cc(C)c(S(=O)(=O)N2CCN(c3ccccn3)CC2)c(C)c1,active: -95.1%
21,Cc1ccc(-n2nc3ccc(NC(=O)/C=C/c4ccco4)cc3n2)cc1,inactive: -29.3%
22,COc1ccc(C(=O)Nc2ccc(Cl)c(S(=O)(=O)N3CCOCC3)c2)cc1,inconclusive: -42.3%
23,CCOc1ccccc1Nc1nc(-c2ccc(C)cc2)c(CC(=O)O)s1,inactive: -12.6%

row,Structure (SMILES),"activity change, negative = inhibition"
1,O=C(N/N=C/c1ccc(OC(F)F)cc1)c1ccc(CSc2nc3ccccc3[nH]2)cc1,inconclusive: -40.1%
2,Cc1ccccc1/C=N/NC(=O)Cc1ccc(Cl)cc1,inconclusive: -43.4%
3,O=C1C=C(c2ccccc2)C(=O)N1Nc1ccccc1,active: -109%
4,Cc1[nH]c(=S)[nH]c(=O)c1Cc1ccccc1,active: -63.3%
5,O=C(Nc1ccc(S(=O)(=O)N2CCCCC2c2cccnc2)cc1)c1ccc(F)cc1 (centres undefined),inconclusive: -55.5%
6,COc1ccc2nc(NC(=O)c3nc(S(=O)(=O)Cc4ccccc4)ncc3Cl)sc2c1,inconclusive: -41.1%
7,O=Cc1ccccc1C=O,inactive: 6.93%
8,O=Cc1ccc(OCc2cccc(C(F)(F)F)c2)cc1O,inconclusive: -40.1%
9,CC(Oc1ccc(F)cc1)C(=O)Nc1nc(-c2ccc(F)cc2)ns1 (centres undefined),inconclusive: -59.9%
10,CN(C)CCCN1c2ccccc2Sc2ccc(C(F)(F)F)cc21,inconclusive: -46%
11,CN1CCN(CCOC2Cc3ccccc3Sc3ccc(Cl)cc32)CC1 (centres undefined),active: -70.1%
12,Cc1cc2[nH]c3c(c[n+](C)c4ccccc34)c2cc1C,inconclusive: -47.4%
13,Cc1c(C(=O)NCCO)sc2nc3n(c(=O)c12)CCC3,inconclusive: -40.6%
14,Cc1cc(NC(=O)CSc2nncn2N)no1,inconclusive: -45%
15,COc1ccc(N(Cc2cccs2)C(=O)c2ccc(Br)o2)cc1,inconclusive: -44%
16,CCN(CC(=O)Nc1ccccc1OC)C(=O)/C=C/c1cccs1,active: -68.8%
17,Cc1ccc(S(=O)(=O)Oc2ccc(/C=N/NC(=O)c3cccnc3)cc2)cc1,inconclusive: -40.2%
18,COc1ccccc1-c1nnc(NC(=O)C(C)Sc2nncn2C)s1 (centres undefined),inactive: -9.56%
19,COc1ccc(-c2ccnc3nc(-n4cccc4)nn23)cc1,inactive: -26.4%
20,CCCCOCCOCCOCc1cc2c(cc1CCC)OCO2,inconclusive: -41%
